Measurements reported in PMC6425991, “Peptide Super-Agonist Enhances T-Cell Responses to Melanoma” (Frontiers in Immunology, 2019).

How the values were obtained:
[1] = system: CD8 T-cells from metastatic melanoma patients MM909.37 and MM1413.12; assay: Peptide priming of melanoma patient CD8 T-cells, tetramer staining; type: cell-based, human; settings: day 28, background staining of the primed line
Experimental: PBMCs were isolated from “buffy coats” using the SepMate protocol, as per the manufacturer's instructions ([…] Technologies, Vancouver, BC, Canada). CD8 T-cells were positively purified using anti-CD8 microbeads (Miltenyi Biotech), as per the manufacturer's instructions. […] CD8 T-cells were plated in 1 mL of priming media (as for T-cell media with 20 IU/mL of IL-2 and no IL-15) in 24 or 48 well plate at a density of 2 × 10^6 or 4 × 10^6 alongside peptide pulsed cells at a density of 3 × 10^6 and 8 × 10^6 per well, respectively. […] These T-cell “primings” were fed with fresh medium tri-weekly and from day 14 onwards supplemented with 25 ng/mL of IL-15.
Soluble biotinylated peptide-MHC monomers were produced in-house as previously described ([20]). Tetramers were assembled and 5 × 10^4 T-cells stained with 0.5 μg (10 μg/mL) of tetramer, with respect to pMHC component ([17]). An optimal tetramer staining protocol using the protein kinase inhibitor, Dasatinib ([21]), and primary unconjugated anti-PE antibody ([22]) was used as previously described ([23], [24]). Additionally, some samples were also stained with a secondary PE conjugated antibody to add further fluorescence to the tetramer stained cells ([22]).

HLA A2 = HLA A2 (Homo sapiens, UniProt P04439, D140Y/D185E/D98H/E176V/E277Q/G131W/G231S/I119V/I121R/I166T/I218V/L300P/N151K/N90K/P208A/P217A/Q86G/Q94H/R138H/R169H); settings: crystal structure of the binary pHLA complex

Sequence: MTSAIGILPV [altered peptide ligand super-agonist designed from CPL screen of clone ST8.24]
- percentage of irrelevant (ALWGPDPAAA) tetramer+ cells ([1]; patient MM909.37): 0.01%
- percentage of irrelevant (ALWGPDPAAA) tetramer+ cells ([1]; patient MM1413.12): 0.002%
- total number of contacts between the peptide and HLA-binding groove (HLA A2): 136
